Results published in PubChem BioAssay AID1240 (Sanford-Burnham Center for Chemical Genomics, 2008).
Among all 50,000 compounds or so, about 800 (1.6%) showed an effect of 50% or more. The list shows a part of the results.

Target: Bcl-2-like protein 10 (Homo sapiens) (UniProt Q9HD36)
Test: TR3 peptide-Bcl-B binding displacers, biochemical primary FP assay, phenotype converters (AID 1240);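 also: 0% = Bcl-B with tracer peptide and DMSO and 100% = tracer peptide lacking Bcl-B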
Details: GST-Bcl-B / FITC-TR3 peptide fluorescence polarization; stronger effect = higher value; compound at 3.75 mg/L

Sequence of UniProt Q9HD36 (Q9HD36 whole entry, looked up): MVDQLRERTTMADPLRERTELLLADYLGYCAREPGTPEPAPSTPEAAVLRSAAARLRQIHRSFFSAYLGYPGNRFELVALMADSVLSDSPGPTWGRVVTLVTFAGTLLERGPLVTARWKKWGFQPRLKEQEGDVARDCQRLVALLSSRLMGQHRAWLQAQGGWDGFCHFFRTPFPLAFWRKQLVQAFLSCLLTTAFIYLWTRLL

Row | SMILES | displacement
1 | C=CCNc1nc(-c2ccncc2)cs1 | -3.2%
2 | COc1ccc2nc(NS(=O)(=O)c3ccc(Cl)cc3)c(Nc3cccc(NC(C)=O)c3)nc2c1 | -2.9%
3 | O=Cc1ccccc1OC(=O)c1cc2ccccc2oc1=O | -6.4%
4 | O=C(NCCN1CCCCC1)c1cc(Cl)ccc1Cl | -9.6%
5 | CN(C)c1ccc(/C=C(\C#N)C(=O)NCC2CCCO2)cc1 (centres undefined) | -19.4%
6 | CCOC(=O)C1=C(C)N=C2SCCN2C1c1ccccc1 (centres undefined) | -10.4%
7 | CCOC(=O)N1CCN(C(=O)c2ccc(I)cc2)CC1 | 9.7%
8 | Cc1c(Cc2ccccc2)sc(NC(=O)c2ccc(-c3ccccc3)cc2)c1C(N)=O | -1.3%
9 | Cc1cc(OCC(=O)Nc2c(C)cccc2C)ccc1Cl | 5.8%
10 | COc1ccc2c(c1OC)C(=O)OC2Nc1ccc(C)cc1 (centres undefined) | 5.4%
11 | COc1cc(OC)cc(C(=O)NNC(=O)c2ccccc2OC)c1 | -5.7%
12 | O=C(COc1ccc(Br)cc1)Nc1cc(Cl)c(Cl)cc1Cl | 7.6%
13 | N#CC1=C(N)C(C#N)(C#N)C(c2cccc(Br)c2)C=C1C1CC1 (centres undefined) | -1.9%
14 | COc1ccc(C2/C(=C(/O)c3ccccc3)C(=O)C(=O)N2c2cc(C(C)(C)C)on2)cc1OC (centres undefined) | -10.8%
15 | CC(C)COCC1CC2(CC(C)C(=O)CC2=O)C(=O)O1 (centres undefined) | -2.6%
16 | CCn1c2ccccc2c2nnc(SCC(=O)Nc3ccc([N+](=O)[O-])cc3)nc21 | -1.5%
17 | CCOc1ccccc1N(CC(=O)NCCOC)S(=O)(=O)c1ccccc1 | -4.5%
18 | CCc1cc2c(C)cc(=O)oc2cc1O | -22.5%
19 | COc1ccc(N2C(=O)CC(N3CCN(Cc4ccc5c(c4)OCO5)CC3)C2=O)cc1 (centres undefined) | -5.3%
20 | Cc1ccccc1N1C(=O)c2cccc3c(N(C)CCO)ccc(c23)C1=O | 13.9%
21 | O=C(Nc1ccc(-c2ccc(NC(=O)c3ccccc3)cc2)cc1)c1ccccc1 | 6.7%
22 | O=C1CC(c2ccc(Cl)cc2)CC2=C1C(c1ccccc1[N+](=O)[O-])Nc1ccccc1N2 (centres undefined) | 14.1%
23 | COc1ccc2oc(=O)c(C(=O)NCCc3ccccc3)cc2c1 | 10.6%

Row | SMILES | displacement
24 | CN(N)c1nc(N2CCCC2)nc(N2CCCC2)n1 | 7.2%
25 | CCOC(=O)c1sc(NC(=O)c2cc3n(n2)C(C(F)(F)F)CC(c2cccs2)N3)c(C(=O)OCC)c1C (centres undefined) | 7.2%
26 | Cc1ccc(-n2nc3cc(C)c(NC(=O)/C=C\c4ccco4)cc3n2)cc1 | 20%
27 | CC(C)(C)NC(=O)c1nn2c(c1Br)NC(c1ccccc1)CC2C(F)(F)F (centres undefined) | 1.7%
28 | O=C(NC(C(Cl)(Cl)Cl)S(=O)(=O)c1ccccc1)c1ccccc1 (centres undefined) | 9.8%
29 | O=C(CSc1nc2ccc(N3C(=O)c4ccccc4C3=O)cc2s1)NCCOc1ccc(Cl)cc1 | 1.9%
30 | CCOC(=O)C1=C(C)N=c2s/c(=C\c3ccccc3Cl)c(=O)n2C1c1ccc(OC)c(OC)c1 (centres undefined) | 106%
31 | COC(=O)CN1C(=O)/C(=C/c2ccccn2)SC1=S | 10.9%
32 | Cc1ccc(-c2nc3ccccc3c(=O)[nH]2)cc1 | 3.3%
33 | O=C(/C=C/c1ccc(Cl)cc1)Nc1cccc2ccccc12 | 13.7%
34 | COc1ccc(-c2nc(SCC(=O)c3ccccc3)n[nH]2)cc1 | -13.8%
35 | CCOC(=O)CSc1nnnn1-c1ccccc1F | -13.6%
36 | CCOc1ccc(C2Nc3cccc4cccc(c34)N2)cc1OC | 5.5%
37 | CCOc1ccc(C2/C(=C(\O)c3ccccc3)C(=O)C(=O)N2CCN(C)C)cc1 (centres undefined) | -11.7%
38 | CC1(C)Cc2c(sc3nc(SCCOc4ccccc4)n(Cc4ccccc4)c(=O)c23)CO1 | -10.2%
39 | C=CCNC(=O)CN(c1ccc(OC)c(Cl)c1)S(=O)(=O)c1ccccc1 | 3.3%
40 | N/C(=N\OC(=O)c1cccc(Cl)c1)c1ccc(Cl)cc1 | 1.4%
41 | CC(=O)NC1=NN(C(C)=O)C(c2ccccc2F)S1 (centres undefined) | -11.6%
42 | COc1ccc(Cl)cc1NC(=O)CN(Cc1ccccc1)S(=O)(=O)c1ccccc1 | 5.9%
43 | N#C/C(=C/c1ccc(Sc2ccccc2)o1)c1nc2ccccc2[nH]1 | 2.3%
44 | COc1cc(NC(=O)c2ccc(I)cc2)c(OC)cc1Cl | 13.1%
45 | CCCCOC(=O)c1ccc(NC(=O)c2cccc(OCCC)c2)cc1 | -1.2%
46 | Cc1cc(C)c2oc(-c3cccc(NC(=O)c4ccccc4C)c3)nc2c1 | 15.5%

Row | SMILES | displacement
47 | COc1ccc(O)c(-c2cc(-c3ccc(F)cc3)n[nH]2)c1 | 1.8%
48 | COc1cc(OC)c(OC)cc1CN1CCN(C2CCC(C)CC2)CC1 (centres undefined) | 1.2%
49 | COC(=O)C1=C(C)N(CC(C)C)C(=O)/C1=C\c1cccc(OC)c1O | 12.3%
50 | Cc1ccccc1NC(=O)C1C(c2cccs2)C(C#N)=C(SCC(=O)Nc2ccc(Br)cc2)NC1(C)O (centres undefined) | -5.9%
51 | Cc1ccc(S(=O)(=O)N=C2C=CC(=O)C=C2)c(C)c1 | -7%
52 | O=C(COc1cccc(Cl)c1)NCc1ccco1 | 0%
53 | COc1cc(NC(=O)/C=C/c2ccc(C(C)C)cc2)c(OC)cc1Cl | -5.4%
54 | CCOC(=O)COc1cc(C)c(Cl)cc1[N+](=O)[O-] | -1.1%
55 | COc1ccc(S(=O)(=O)N(CC(=O)N=Nc2c(O)[nH]c3ccccc23)c2cc(C)cc(C)c2)cc1OC | 2.5%
56 | CCC(=O)N1c2ccc3ccccc3c2C2C=CCC2C1c1ccc(F)cc1 (centres undefined) | 18.7%
57 | Cc1cc(C)c(N2C(=O)c3ccccc3C2=O)c(C)c1 | -2.8%
58 | COc1ccc(OC)c(S(=O)(=O)N2CCC(C)CC2)c1 | -0.9%
59 | O=C(Nc1ccc2c(c1)OCCO2)c1cccnc1 | 9.3%
60 | CCC(=O)N1CCN(c2ccc(C(C)=O)cc2F)CC1 | -3.4%
61 | Cc1ccc(NC(=O)/C(=C\c2ccccc2)NC(=O)c2ccccc2I)cc1 | -7.5%
62 | CCOC(=O)C1=NNC(C(=O)c2ccccc2)C1c1ccc(OC)cc1 (centres undefined) | -12.8%
63 | O=S(=O)(NCc1ccc2c(c1)OCO2)c1ccc(Br)cc1Br | -8.7%
64 | O=C(NC(=S)Nc1ccc(N2CCOCC2)cc1)c1ccco1 | 14.6%
65 | O=C(Nc1ccc(O)cc1)c1ccc2c(c1)C(=O)N(c1ccccc1-c1ccccc1)C2=O | 3%
66 | CN1C(=O)C(=Cc2ccc(O)c([N+](=O)[O-])c2)C(=O)N(C)C1=O | 12%
67 | COc1ccccc1/C=N/N1CCN(Cc2cccc3ccccc23)CC1 | -10.2%
68 | Cc1ccc(S(=O)(=O)Oc2ccc(Br)cc2C=C2C(=O)NC(=O)NC2=O)cc1 | -1%
69 | CCOc1ccc2nc(SCC(=O)Nc3ccccc3Oc3ccccc3)sc2c1 | 1%
